According to the supplement of paper PMC11417369:
± gives the standard deviation of the averaged measurements. This is one part of the list.

system: PfAP2-LT AP2 domain (GST-tagged); experiment: gcPBM binding intensity (ln(normalized median fluorescence intensity)); higher = stronger DNA binding
Method in brief: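 Plasmodium falciparum DNA-binding domains carrying a GST tag were expressed in E. coli and applied for 1 h, at about 25 μg on average, to an Agilent 4 × 180k array. The array held primer-extended double-stranded 36-bp intergenic genomic probes together with negative controls, and binding took place in 1× PBS with 1% milk, 0.2 mg/ml BSA, 0.5% salmon testes DNA and 0.03% Triton X-100. An Alexa488 anti-GST antibody detected bound protein, and the array was scanned at 488 nm. Binding intensity is taken as the highest Masliner-normalised natural-log median intensity across replicate spots of either probe orientation.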

Row | Sequence | gcPBM binding intensity (ln)
1 | TAAGTAACTTTTAAAAGTACCCACACATATATATAT [XGTACX_site1231] | 8.88 ± 0.33
2 | TTTCTTTTTTTTTTTTTTTTTTTTTTTTTTTTTTTT [TGCATGCA_negctrl_site91] | 8.59 ± 0.16
3 | CAATTAGCATTTTATTGTACATTTATAATCTATGAT [XGTACX_site1445] | 8.74 ± 0.41
4 | AAAAAAAAAAATACTCGTACATAAACCTATACATTT [XGTACX_site6494] | 8.83 ± 0.45
5 | CTTAGAATATATGAATGTACTTTTTTTTTTAAATAA [XGTACX_site6048] | 8.18 ± 0.45
6 | ATAATATATTTTTGTAGTACACTTCTGGTAATATCG [XGTACX_site2402] | 8.81 ± 0.46
7 | AGTATACAGATATATACACACATATATATATATATA [CACACA_site4323] | 9.935 ± 0.021
8 | TATATATATATATGTTGTACAAAAATGTAAAATATA [XGTACX_site7761] | 9.18 ± 0.12
9 | ATACATATAAATAATTGTACTATTAAAAAAGAACGT [XGTACX_site3751] | 9.03 ± 0.35
10 | TGTTTTTAATTTCGCACACACCTTGTGGAAAAAAAA [CACACA_site4482] | 8.88 ± 0.38
11 | ATATATATATTTGTATGTACATATCATATTGTGTGT [XGTACX_site1580] | 9.56 ± 0.35
12 | ATACGTGGGCAAAAAGTGCATATAATCAAAAAAAAA [GTGCAC_site9961] | 8.98 ± 0.64
13 | AAGATATTTGAATATACACACGATTTAAATTTAATA [CACACA_site3866] | 8.7 ± 0.4
14 | GTATAACTTTTGCGCGTACACACATTTATCCTCTTT [CACACA_site208] | 9.68 ± 0.47
15 | TTTCTTTTTTTATAATCCACATTGGGAAAATCAAAA [TGCATGCA_negctrl_site159] | 8.12 ± 0.45
16 | ACGTATAATATGTACACACACATATATACAAAAAAA [CACACA_site917] | 9.45 ± 0.42
17 | TAGAATATCCCCTACACACCCAAATAATTTACAAAT [CACACA_site4825] | 9.3 ± 0.35
18 | AAAGTTGTTACGAACATACACACGAACATACTCACG [CACACA_site604] | 9.12 ± 0.37
19 | TTGAAATATACGTAAGTAAATTTCATTTGGTTGTGT [XGTACX_negctrl_site600] | 8.77 ± 0.47
20 | CATATATTATTATATGCACACATGAAAATATACAAA [CACACA_site2795] | 8.97 ± 0.33
21 | AAAATATTTATTACTTCACACATTATTGTATTTATA [CACACA_site5082] | 8.88 ± 0.4
22 | GTATTATATATATAGGTGCATATATATATATAAATA [GTGCAC_site9787] | 8.99 ± 0.4

Row | Sequence | gcPBM binding intensity (ln)
23 | AAATATAAAGGATTAATATTATATATATATATATAT [XGTACX_negctrl_site211] | 9.095 ± 0.021
24 | GTTTGGTGGTGTTTTGGTACGTACGGGGGGGTATGT [XGTACX_site1983] | 10.9 ± 0.18
25 | TTTTTTTTTTTTTATTGTACTTATTTTTTTATGTTT [XGTACX_site7725] | 8.71 ± 0.52
26 | ATATTTTCTTTAAATTGTACATATTGTGATACAAAA [XGTACX_site5886] | 8.4 ± 0.24
27 | TATGTATTTTTATGCACACATGCGTGGCTTATATAA [CACACA_site387] | 9.09 ± 0.39
28 | ATTTTTTTTTTTTTTTTTTTTTTGTTTATACAAAAT [CACACA_negctrl_site1241] | 8.43 ± 0.47
29 | TATATACATACATGTAGTACCTAATTCGGTCCCGTA [XGTACX_site2702] | 8.91 ± 0.45
30 | TTTCATTTAGCTTTTACACACTATATATTATTGATT [CACACA_site16] | 8.99 ± 0.47
31 | TATATGTGTCTACAGGTGCATATATCATATATTGCT | 8.88 ± 0.38
32 | ACACATACATATACATACACATTGTTTTCATGCATC [XGTACX_negctrl_site126] | 9.2 ± 0.39
33 | TATAAATATTTATACACACACATATATTTATATATC [CACACA_site6366] | 9.24 ± 0.35
34 | TAAATAAATTTATACACACACACACGGATATAAATA [CACACA_site6532] | 9.82 ± 0.071
35 | AATCAAAATTCATTAACACACAATTTTAATATTCTT [CACACA_site5178] | 8.64 ± 0.45
36 | TATTTTTATAAGAGCATGCACTGTTTAAAATGGTAT | 8.55 ± 0.35
37 | TTTTTTAAAATATGGACACACATATATATATATGTA [CACACA_site2784] | 8.68 ± 0.37
38 | TTTTGATATAAAAAAAGTACATTAATAATATTAATT [XGTACX_site4248] | 8.31 ± 0.38
39 | CAGTATTCTTCTATATGTACTTATTTAAATATTCTT [XGTACX_site7555] | 8.77 ± 0.47
40 | TAAATAATAATAAATGTGCACAGGTATTAACAAAAA [GTGCAC_site9988] | 9.08 ± 0.54
41 | ATGATATGGATAAATACACACAATAAAATAATGTCT [CACACA_site6786] | 9.12 ± 0.4
42 | TTTTAACAAAACAAAACAAAATAATATAAAGATAAC [TGCATGCA_negctrl_site154] | 8.74 ± 0.4
43 | TTTATTTATTTATGTTGTACAAGTTTATACTGGAAT [XGTACX_site6479] | 8.75 ± 0.34
44 | TTTTTTTTTTTTTTTTTTTGATTCTTATAAAAATTT [GTGCAC_negctrl_site240] | 8.09 ± 0.33

Row | Sequence | gcPBM binding intensity (ln)
45 | AGGTCACATTTGTCCTCACACATAGATAAATATATA [CACACA_site5460] | 8.71 ± 0.44
46 | ATAATTTGATCAATTTTTCATTTTTCATTTTTTTAA [CACACA_negctrl_site1252] | 8.54 ± 0.36
47 | GTCAAAAATAATATATGTACTTATAATAGATAAATG [XGTACX_site7755] | 8.7 ± 0.45
48 | AATTAGCATTAAAAATGTACAAAAGAAAAAAATATA [XGTACX_site3816] | 8.76 ± 0.61
49 | TTAACATATGACATTTTTTCACCCTTCCTTTATTTT [CACACA_negctrl_site1192] | 8.74 ± 0.57
50 | ATAAAATCATTCAATGGTACAGAAATACAAAATGTA [XGTACX_site6739] | 8.84 ± 0.4
51 | TATGTATAAAAATATTGTACATATTATATATATATA [XGTACX_site2947] | 8.71 ± 0.26
52 | TAAAATTTAAAAAGGTGTACACTATAAATTAAAATA [XGTACX_site2081] | 8.68 ± 0.62
53 | AGAAAGAATGAAAAATGTACATATATGTAATAGCTA [XGTACX_site364] | 9.24 ± 0.4
54 | CACACGTATATATATACACACTAAAATACCCAGACA [CACACA_site6142] | 9.26 ± 0.42
55 | TATTTTTTTACATATTGTACATAATATAAAACTTAC [XGTACX_site8273] | 8.8 ± 0.47
56 | ATTTTTTCATATTCTACACACGTGAACAAATGTGTC [CACACA_site3007] | 9.25 ± 0.42
57 | ATATAATAGAAGTGTACACACATATTTATGGGTGTA [CACACA_site5686] | 9.12 ± 0.45
58 | AATATTTTGTTATTTATTTAATCTAATATTATGATA [GTGCAC_negctrl_site258] | 8.53 ± 0.4
59 | TTTTTAGTTAATTAAACACACAAAAAAAAAAATAAA [CACACA_site3930] | 8.46 ± 0.49
60 | AATATTTTTATATATATACACACTTACATATATATA [CACACA_site3609] | 8.91 ± 0.4
61 | ATAATATTGTGGTATACACACCTTACAAAAAGGTAC [CACACA_site5582] | 8.96 ± 0.42
62 | TTTTCTAAAAAAAGTTGTACATCTTATTTATATTAT [XGTACX_site295] | 8.59 ± 0.51
63 | AAAAAATAAAAAAATAAAAAATAAAAAATAAAAAAT [TGCATGCA_negctrl_site90] | 8.54 ± 0.56
64 | TATAAAAATAAATAAATAAATAAATAAATAAATAAA [TGCATGCA_negctrl_site310] | 8.44 ± 0.54
65 | AAAAATTACCCATCCATACACACATATTTTTTTTAA [CACACA_site2190] | 9.04 ± 0.19
66 | ATGTAAGACAAAAAGGGTACATAATGCGTATGTATT [XGTACX_site4666] | 9.25 ± 0.47

Row | Sequence | gcPBM binding intensity (ln)
67 | GTATATAATTATATATGTACTAAATAAATATTTTTA [XGTACX_site6062] | 8.49 ± 0.43
68 | ATTAAAATTTGTTAAAGTACTTAATAAAAATTTTTC [XGTACX_site1959] | 8.26 ± 0.4
69 | TATAAATCTATAAATGCACACAAGGGAAGAAAAACG [CACACA_site2965] | 9.32 ± 0.56
70 | CAAACAATTAAACAAACACACATATACAAGTATATA [CACACA_site8639] | 9.03 ± 0.44
71 | TATTATTCCAAGAAAAAAAAAAATAAAAAAAAAAAA [CACACA_negctrl_site1424] | 8.15 ± 0.57
72 | AAAGAACAAATAAAACATAAAATAATATATATAGAT [CACACA_negctrl_site1764] | 8.91 ± 0.42
73 | TATATATTATATATGTGTACTCACTAACAAAAATTA [XGTACX_site6285] | 8.48 ± 0.43
74 | AGGTGAATATTTTTTACACACATAAAAAAAATATAT [CACACA_site57] | 8.99 ± 0.45
75 | TTTAAGATTTTGTAATGTACATATATACATATATAT [XGTACX_site399] | 8.86 ± 0.39
76 | AAATTATATAAAGGAACACACATTTTATTTTATTTT [CACACA_site1500] | 8.64 ± 0.44
77 | TATATTTTTATAATAACACACGATATATGTTTAGGA [CACACA_site1283] | 8.57 ± 0.44
78 | AATGACTACATAATAGTGCAATATTAAAGAAAATTA | 8.79 ± 0.49
79 | TGTATATCATAAGATGGTACACGTGTGTGCGTATGC [XGTACX_site2255] | 9.47 ± 0.35
80 | ATTCTTAAAAAAAAATGTACACATGAACAATATGTA [XGTACX_site362] | 8.59 ± 0.44
81 | AATATGACGTAGTGGTGTACACACATGGTACCTTTA [XGTACX_site3147] | 9.3 ± 0.44
82 | AAAAGATAATTATGCACACACACACCCCCACCCAAC [CACACA_site2570] | 10.38 ± 0.064
83 | TATAGAATAATCTATAAACACACAAACACAACAAAA [CACACA_site9374] | 9.23 ± 0.33
84 | TTAGAACTATTTTATACATGCAGTTATTTAATACTT [TGCATGCA_site1039] | 8.68 ± 0.39
85 | TTATAAATATAATTTTGTACATATATATATATATAC [XGTACX_site5064] | 8.78 ± 0.45
86 | AATGGAAATTTTTCTTGTACACATATATGACATGTT [XGTACX_site1691] | 8.86 ± 0.47
87 | TTTTTTTTTACTGCATGTACTTGATGTAAATAAATT [XGTACX_site3045] | 8.74 ± 0.45
88 | AAAAAAATAATCATCACACACGGAGAATGTCCAATA [CACACA_site5305] | 9.35 ± 0.22
